Source: the supplement of paper PMC8728848
This is one part of the list.

Key:
Assay in all cases: glycan array binding signal (z-score within array); higher = stronger binding
Conditions in all cases: glycan notation: IUPAC condensed, linker removed
[1] = biological target: GalNAc4S6S(b1-4)GlcNAc
How it was run: (§1)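 Glycan array binding is given as a within-array Z-score, which can be read as non-binding when negative. The arrays, 3228 of them, came from the Consortium for Functional Glycomics database and were retained only where the protein sequence was available. Z-scores were averaged across arrays of the same protein sequence at different concentrations or buffers and across linkers.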

[2] = biological target: GalNAc6S(b1-4)GlcNAc
How it was run: as §1

[3] = biological target: Glc(a1-4)Glc
How it was run: as §1

[4] = biological target: Glc(a1-4)Glc(a1-4)Glc(a1-4)Glc
How it was run: as §1

[5] = biological target: Glc(a1-6)Glc(a1-6)Glc
How it was run: as §1

[6] = biological target: Glc(a1-6)Glc(a1-6)Glc(a1-6)Glc
How it was run: as §1

[7] = biological target: Glc(b1-4)Glc
How it was run: as §1

[8] = biological target: Glc(b1-6)Glc
How it was run: as §1

[9] = biological target: GlcA(b1-3)Gal
How it was run: as §1

[10] = biological target: GlcA(b1-3)GlcNAc
How it was run: as §1

[11] = biological target: GlcA(b1-6)Gal
How it was run: as §1

[12] = biological target: GlcNAc(a1-3)Gal(b1-4)GlcNAc
How it was run: as §1

[13] = biological target: GlcNAc(a1-4)Gal(b1-3)GlcNAc
How it was run: as §1

[14] = biological target: GlcNAc(a1-4)Gal(b1-4)GalNAc
How it was run: as §1

[15] = biological target: GlcNAc(a1-4)Gal(b1-4)GlcNAc
How it was run: as §1

[16] = biological target: GlcNAc(a1-4)Gal(b1-4)GlcNAc(b1-3)Gal(b1-4)Glc
How it was run: as §1

[17] = biological target: GlcNAc(a1-4)Gal(b1-4)GlcNAc(b1-3)Gal(b1-4)GlcNAc
How it was run: as §1

[18] = biological target: GlcNAc(a1-4)Gal(b1-4)GlcNAc(b1-3)Gal(b1-4)GlcNAc(b1-3)Gal(b1-4)GlcNAc
How it was run: as §1

[19] = biological target: GlcNAc(a1-4)Gal(b1-4)GlcNAc(b1-3)Gal(b1-4)[Fuc(a1-3)]GlcNAc(b1-3)Gal(b1-4)[Fuc(a1-3)]GlcNAc
How it was run: as §1

[20] = biological target: GlcNAc(a1-6)Gal(b1-4)GlcNAc
How it was run: as §1

[21] = biological target: GlcNAc(b1-2)Gal(b1-3)GalNAc
How it was run: as §1

[22] = biological target: GlcNAc(b1-2)Man(a1-3)[GlcNAc(b1-2)Man(a1-6)]Man(b1-4)GlcNAc(b1-4)GlcNAc
How it was run: as §1

[23] = biological target: GlcNAc(b1-2)Man(a1-3)[GlcNAc(b1-2)Man(a1-6)]Man(b1-4)GlcNAc(b1-4)[Fuc(a1-6)]GlcNAc
How it was run: as §1

[24] = biological target: GlcNAc(b1-2)Man(a1-3)[GlcNAc(b1-4)][GlcNAc(b1-2)Man(a1-6)]Man(b1-4)GlcNAc(b1-4)GlcNAc
How it was run: as §1

[25] = biological target: GlcNAc(b1-2)[GlcNAc(b1-4)]Man(a1-3)[GlcNAc(b1-2)Man(a1-6)]Man(b1-4)GlcNAc(b1-4)GlcNAc
How it was run: as §1

[26] = biological target: GlcNAc(b1-2)[GlcNAc(b1-4)]Man(a1-3)[GlcNAc(b1-4)][GlcNAc(b1-2)Man(a1-6)]Man(b1-4)GlcNAc(b1-4)GlcNAc
How it was run: as §1

[27] = biological target: GlcNAc(b1-2)[GlcNAc(b1-4)]Man(a1-3)[GlcNAc(b1-4)][GlcNAc(b1-2)[GlcNAc(b1-6)]Man(a1-6)]Man(b1-4)GlcNAc(b1-4)GlcNAc
How it was run: as §1

[28] = biological target: GlcNAc(b1-2)[GlcNAc(b1-4)]Man(a1-3)[GlcNAc(b1-4)][GlcNAc(b1-2)[GlcNAc(b1-6)]Man(a1-6)]Man(b1-4)GlcNAc(b1-4)[Fuc(a1-6)]GlcNAc
How it was run: as §1

[29] = biological target: GlcNAc(b1-2)[GlcNAc(b1-6)]Man(a1-6)[GlcNAc(b1-2)Man(a1-3)]Man(b1-4)GlcNAc(b1-4)GlcNAc
How it was run: as §1

[30] = biological target: GlcNAc(b1-2)[GlcNAc(b1-6)]Man(a1-6)[GlcNAc(b1-2)Man(a1-3)]Man(b1-4)GlcNAc(b1-4)[Fuc(a1-6)]GlcNAc
How it was run: as §1

[31] = biological target: GlcNAc(b1-2)[GlcNAc(b1-6)]Man(a1-6)[GlcNAc(b1-2)Man(a1-3)][GlcNAc(b1-4)]Man(b1-4)GlcNAc(b1-4)GlcNAc
How it was run: as §1

[32] = biological target: GlcNAc(b1-3)Gal
How it was run: as §1

[33] = biological target: GlcNAc(b1-3)Gal(b1-3)GalNAc
How it was run: as §1

[34] = biological target: GlcNAc(b1-3)Gal(b1-4)Glc
How it was run: as §1

[35] = biological target: GlcNAc(b1-3)Gal(b1-4)GlcNAc
How it was run: as §1

[36] = biological target: GlcNAc(b1-3)Gal(b1-4)GlcNAc(b1-3)Gal(b1-4)GlcNAc
How it was run: as §1

[37] = biological target: GlcNAc(b1-3)GalNAc
How it was run: as §1

B1: RVL (Remusatia vivipara), B5LYJ9 (protein)
chain: MAKLLLFLLPAILGLLVPRSAVALGTNYLLSGQTLDTEGHLKNGDFDLVMQDDCNLVLYNGNWQSNTANNGRDCKLTLTDYGELVIKNGDGSTVWKSGAQSVKGNYAAVVHPDGRLVVLGPSVFKIDPWVRGLNSLRFRNIPFTNNLLFSGQVLYGDGRLTAKNHQLVMQGDCNLVLYGGKYGWQSNTHGNGEHCFLRLNHKGELIIKDDDFKTIWSSRSSSKQGEYVLILQDDGFGVIYGPAIFETSSKRSIAAS
B1 was tested, and the “glycan array binding signal (z-score)” value [1] was -0.406, the “glycan array binding signal (z-score)” value [2] was -0.261 and the “glycan array binding signal (z-score)” value [3] was -0.087. The “glycan array binding signal (z-score)” value [4] was -0.009, the “glycan array binding signal (z-score)” value [5] was -0.193 and the “glycan array binding signal (z-score)” value [6] was -0.096. For the same binder, the “glycan array binding signal (z-score)” value [7] was 0.059, the “glycan array binding signal (z-score)” value [8] was -0.243 and the “glycan array binding signal (z-score)” value [9] was -0.177. The “glycan array binding signal (z-score)” value [10] was -0.098, the “glycan array binding signal (z-score)” value [11] was -0.23 and the “glycan array binding signal (z-score)” value [12] was -0.202. For the same binder, the “glycan array binding signal (z-score)” value [13] was -0.171, the “glycan array binding signal (z-score)” value [14] was -0.084 and the “glycan array binding signal (z-score)” value [15] was 0.014. For the same binder, the “glycan array binding signal (z-score)” value [16] was -0.138, the “glycan array binding signal (z-score)” value [17] was -0.035 and the “glycan array binding signal (z-score)” value [18] was 0.124. For the same binder, the “glycan array binding signal (z-score)” value [19] was 0.3, the “glycan array binding signal (z-score)” value [20] was 0.014 and the “glycan array binding signal (z-score)” value [21] was -0.05. For the same binder, the “glycan array binding signal (z-score)” value [22] was 0.913, the “glycan array binding signal (z-score)” value [23] was 0.93 and the “glycan array binding signal (z-score)” value [24] was -0.244. For the same binder, the “glycan array binding signal (z-score)” value [25] was 2.4, the “glycan array binding signal (z-score)” value [26] was -0.163 and the “glycan array binding signal (z-score)” value [27] was -0.065. The “glycan array binding signal (z-score)” value [28] was -0.254, the “glycan array binding signal (z-score)” value [29] was 0.436 and the “glycan array binding signal (z-score)” value [30] was 0.635. The “glycan array binding signal (z-score)” value [31] was -0.16, the “glycan array binding signal (z-score)” value [32] was -0.164 and the “glycan array binding signal (z-score)” value [33] was -0.187. The “glycan array binding signal (z-score)” value [34] was -0.186, the “glycan array binding signal (z-score)” value [35] was -0.145 and the “glycan array binding signal (z-score)” value [36] was -0.186. For the same binder, the “glycan array binding signal (z-score)” value [37] was -0.211.
